From article PMC4160245
Results are given in words; binding and its absence hold for the method and conditions named. For part of these data: Binding seen in cells or lysates may run through a third protein. Some binding calls cover weakened binding; strength is not graded here. For part of these data: Tags and fused reporters may be left off the sequences shown.

Legend:
[1] = biological target: signal peptide-free CpxP, BACTH hybrid (E. coli K12 (MG1655)) (UniProt P0AE85); assay: two-hybrid; BACTH in cyclase-deficient E. coli BTH101; T25 and T18 fragments of B. pertussis adenylate cyclase fused to the N- or C-terminal ends; MacConkey-lactose plates 24 h at 30 °C and β-galactosidase activity in liquid cultures; the positive control (zip) is 100%, the negative control is the empty …
[2] = biological target: T1, sensor domain of CpxA (CpxA-SD), BACTH hybrid (E. coli K12 (MG1655)) (UniProt P0AE82); assay: as above
T1 sequence: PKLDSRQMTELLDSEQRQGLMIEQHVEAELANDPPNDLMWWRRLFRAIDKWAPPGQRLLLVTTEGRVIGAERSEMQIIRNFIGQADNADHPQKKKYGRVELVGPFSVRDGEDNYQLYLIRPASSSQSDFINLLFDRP

[3] = biological target: T2, CpxA-Strep (full-length CpxA sensor kinase with a C-terminal Strep-tag) (E. coli K12 (MG1655)) (UniProt P0AE82); assay: cross-linking + pull-down; mSPINE as a2, misfolded PapE co-expressed from pKT02E; elution fractions concentrated more strongly than samples without PapE
T2 sequence: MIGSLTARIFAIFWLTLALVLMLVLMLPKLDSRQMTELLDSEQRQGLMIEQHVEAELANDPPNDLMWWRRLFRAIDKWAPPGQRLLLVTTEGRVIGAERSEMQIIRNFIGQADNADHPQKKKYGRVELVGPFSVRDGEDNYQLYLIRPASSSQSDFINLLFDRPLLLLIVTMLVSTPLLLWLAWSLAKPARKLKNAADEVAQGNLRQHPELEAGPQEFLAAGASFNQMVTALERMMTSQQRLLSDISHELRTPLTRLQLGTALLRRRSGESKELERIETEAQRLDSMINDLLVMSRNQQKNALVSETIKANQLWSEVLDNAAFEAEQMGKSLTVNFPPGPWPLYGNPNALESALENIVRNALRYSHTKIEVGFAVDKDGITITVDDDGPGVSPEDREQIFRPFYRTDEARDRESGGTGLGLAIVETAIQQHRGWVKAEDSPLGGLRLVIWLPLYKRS

[4] = biological target: T2, CpxA-Strep (full-length CpxA sensor kinase with a C-terminal Strep-tag) (E. coli K12 (MG1655)); assay: cross-linking + pull-down; mSPINE: E. coli TG1 cells treated with 0.6% formaldehyde for 20 min at 37 °C; membranes solubilised with 2% DDM; CpxA-Strep purified on Strep-Tactin; cross-links cleaved at 95 °C; immunoblot. Cells in standard LB (pH 7.0, 150 mM NaCl); also LB pH 8.0, LB with 200 or 250 mM NaCl, varied arabinose, PapEntd co-expressed
[5] = biological target: T2, CpxA-Strep (full-length CpxA sensor kinase with a C-terminal Strep-tag) (E. coli K12 (MG1655)); assay: pull-down; mSPINE procedure without formaldehyde treatment (control): CpxA-Strep purified on Strep-Tactin from DDM-solubilised membranes of E. coli TG1; immunoblot

B1: signal peptide-free CpxP, BACTH hybrid (protein, UniProt P0AE85 21-166)
chain: AAEVGSGDNWHPGEELTQRSTQSHMFDGISLTEHQRQQMRDLMQQARHEQPPVNVSELETMHRLVTAENFDENAVRAQAEKMANEQIARQVEMAKVRNQMYRLLTPEQQAVLNEKHQQRMEQLRDVTQWQKSSSLKLLSSSNSRSQ
In the case of B1, the binding [1] is reported as “binds” and the binding [2] is reported as “binds”.

B2: CpxPA108V (protein, UniProt P0AE85 22-166)
chain: AEVGSGDNWHPGEELTQRSTQSHMFDGISLTEHQRQQMRDLMQQARHEQPPVNVSELETMHRLVTAENFDENAVRAQAEKMANEQIVRQVEMAKVRNQMYRLLTPEQQAVLNEKHQQRMEQLRDVTQWQKSSSLKLLSSSNSRSQ
In the case of B2, the binding [3] is reported as “binds”.

B3: sensor domain of CpxA (CpxA-SD), BACTH hybrid (domain or fragment, UniProt P0AE82 28-164)
chain: T1 sequence
With B3 the binding [2] was “binds”.

B4: endogenous CpxR response regulator (protein, UniProt P0AE88 1-232)
chain: MNKILLVDDDRELTSLLKELLEMEGFNVIVAHDGEQALDLLDDSIDLLLLDVMMPKKNGIDTLKALRQTHQTPVIMLTARGSELDRVLGLELGADDYLPKPFNDRELVARIRAILRRSHWSEQQQNNDNGSPTLEVDALVLNPGRQEASFDGQTLELTGTEFTLLYLLAQHLGQVVSREHLSQEVLGKRLTPFDRAIDMHISNLRRKLPDRKDGHPWFKTLRGRGYLMVSAS
With B4 the binding [4] was “binds” and the binding [5] was “no binding (condition: without formaldehyde treatment)”.
